According to publication PMC6919601, “Identification of Plasmodium dipeptidyl aminopeptidase allosteric inhibitors by high throughput screening” (PLoS ONE, 2019):
Hit rate of the full screen: of about 110,000 compounds, about 230 (0.21%) showed an effect of 50% or more. The list shows a part of the results.

The molecules below were run against DPAP1 (Plasmodium falciparum, UniProt Q8IIJ9) (assay: primary screen, percent inhibition; read by cleavage of a fluorogenic dipeptide substrate; higher = more effect of the substance).
Parameters: species or system P. falciparum D10 trophozoite lysates; single well
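Note: 30 min substrate incubation versus DMSO and 10 µM JCP410 controls.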

Sequence of DPAP1 (Q8IIJ9 whole entry, looked up): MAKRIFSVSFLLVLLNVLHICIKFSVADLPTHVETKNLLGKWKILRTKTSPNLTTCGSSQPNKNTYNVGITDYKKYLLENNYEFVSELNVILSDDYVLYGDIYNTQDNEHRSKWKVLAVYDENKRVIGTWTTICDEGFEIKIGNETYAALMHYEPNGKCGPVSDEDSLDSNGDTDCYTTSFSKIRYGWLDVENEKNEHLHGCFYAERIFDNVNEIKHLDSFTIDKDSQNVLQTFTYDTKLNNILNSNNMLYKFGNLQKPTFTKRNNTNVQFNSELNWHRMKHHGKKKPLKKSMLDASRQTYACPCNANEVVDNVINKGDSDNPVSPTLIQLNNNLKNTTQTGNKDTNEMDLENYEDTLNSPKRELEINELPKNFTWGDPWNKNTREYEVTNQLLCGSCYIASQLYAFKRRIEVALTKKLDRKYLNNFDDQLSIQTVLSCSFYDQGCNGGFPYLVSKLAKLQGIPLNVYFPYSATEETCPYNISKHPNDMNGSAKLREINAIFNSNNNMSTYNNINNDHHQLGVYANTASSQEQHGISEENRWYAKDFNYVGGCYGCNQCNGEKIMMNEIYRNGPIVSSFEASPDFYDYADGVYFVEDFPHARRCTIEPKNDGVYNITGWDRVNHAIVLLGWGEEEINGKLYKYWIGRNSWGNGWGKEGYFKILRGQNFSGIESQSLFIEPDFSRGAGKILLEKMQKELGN

SMILES	% Inhibition @ 10 uM [%]
COc1cccc(C2C(C(=O)Nc3ccccc3OC)=C(C)Nc3nc(CCCO)nn32)c1 (stereo not shown)	0.709
COC(=O)c1cc(S(=O)(=O)N2CCn3c2nc2ccccc23)c[nH]1	-4.07
CCC1CCCCN1Cc1nc2c(c(=O)n(C)c(=O)n2C)n1Cc1ccccc1Cl (stereo not shown)	6.08
O=C1CCC(=O)N1CCn1c2ccccc2c2nc3ccccc3nc21	-1.74
O=C(c1ccccc1)c1ccc(OCCNS(=O)(=O)c2ccc3ccccc3c2)cc1	0.895
CCOc1ccc(C2CC(=O)N3C(=C2C#N)SCC3(O)c2ccc(C)cc2)cc1OC (stereo not shown)	-1.74
O=c1c2c3c(sc2nc2n1CCCC2)CCC3	-1.99
CCNC(=O)CCc1nc(-c2ccccc2)no1	-3.12
CC(C)c1ccc(C(=O)Nc2ccccn2)cc1	0.389
COc1ccc2nc(NC(=O)NCc3noc4ccccc34)sc2c1	1.95
Cc1ccc(CNC(=O)c2ccc(C/N=c3/c(N4CCCC4)c(O)c3=O)cc2)cc1	-0.447
COC(=O)C1=CN(C2CC2)C=C(C(=O)OC)C1c1cccs1	16
O=C(CCS(=O)(=O)c1cccs1)NCCc1ccccc1Cl	0.287
Cc1ccc(-c2cc(-c3ccccc3)nc(-n3nc(-c4ccccc4)cc3O)n2)cc1	-2.36
COc1ccc(-c2noc(CNC(=O)c3ccccc3-c3ccccc3)n2)cc1	-1.22
O=C(O)CNC(=O)c1cccnc1	1.91
O=CN1CCN(C(C(=O)NC2CCCCC2)c2ccc(Cl)cc2)CC1 (stereo not shown)	-2.9
Cc1ccc2[nH]c(-c3cccs3)nc2c1	-0.551
Cc1cccc(C)c1N1C(=O)CC(N2CCN(Cc3ccccc3)CC2)C1=O (stereo not shown)	-1.82
CCN(CC)S(=O)(=O)c1ccc(Cl)c([N+](=O)[O-])c1	-1.97
Cc1ccnc(NC(=O)Cc2ccc(F)cc2)c1	0.843
COc1cccc(C2C(C(=O)c3ccc4c(c3)OCCO4)=C(O)C(=O)N2CCN(C)C)c1OC (stereo not shown)	-0.48
COCc1cc(C)nc(SCC(=O)Nc2nc(-c3ccccc3)cs2)c1C#N	-1.38
CN1CCCN(Cc2c(F)cccc2F)CC1	-2.03
Cn1c(=O)c2c(nc(CN3CCc4ccccc4C3)n2CCCO)n(C)c1=O	0.317

SMILES	% Inhibition @ 10 uM [%]
Cc1ccc(S(=O)(=O)N(CC(=O)NCc2ccncc2)c2cc(Cl)ccc2C)cc1	1.67
CCOc1ncccc1-c1nc(-c2ccc(-n3cccc3)cc2)no1	3.47
Nc1c(C(=O)Nc2ccc(Br)cc2F)sc2nc(-c3ccncc3)ccc12	-4.15
O=c1/c(=C/c2ccc(OCc3ccccc3)cc2)sc2ncnn12	0.487
Cc1cc(C(=O)O)cc(S(=O)(=O)Nc2ccc(Br)cc2)c1C	-3.69
O=C(NCCCNC(=O)C1c2ccccc2Oc2ccccc21)C1c2ccccc2Oc2ccccc21	-2.89
COc1cc(C(=O)N2CCN(c3ncc(C(F)(F)F)cc3Cl)CC2)cc(OC)c1OC	0.776
Cc1cc(CN2CCN(C(=O)c3ccco3)CC2)cs1	4.65
COc1ccc2c(C)cc(S)nc2c1	-8.01
Cc1cc(C)c(S(=O)(=O)N2CCCCC2)cc1S(=O)(=O)N1CCCCC1	4.03
Cc1cccc(COn2cccc(C(=O)Nc3nc4ccccc4s3)c2=O)c1	1.72
COC(=O)c1ccc(/C=c2\sc3nnc(-c4cccc(C)c4)n3c2=O)cc1	-1.82
Cc1ccc(-c2nc(S(=O)(=O)c3ccc(Cl)cc3)c(N3CCOCC3)o2)cc1	-3.04
N#C/C(=C\c1ccccc1[N+](=O)[O-])c1nc(-c2ccc(Cl)cc2)cs1	-7.57
O=C(CN1C(=O)c2ccccc2C1=O)Nc1cccc(Cl)c1	-3.92
O=C(c1cc(=O)c2cc(Cl)ccc2o1)N1CCC(Cc2ccccc2)CC1	0.248
CC(C)C[C@H](NC(=O)OCc1ccccc1F)C(=O)NCC#N	-3.04
Cc1c(C#N)c(=O)ncn1-c1ccc(Cl)cc1	9.08
CCN(CC)CC#CC(O)(c1ccccc1)c1cccnc1 (stereo not shown)	-0.902
CCOC(=O)c1nnn(-c2nonc2N)c1CN1CCc2ccccc2C1	9.19
Cc1[nH]nc(Nc2ccc(C(=O)O)cc2)c1[N+](=O)[O-]	3.31
Cc1ccc(C)c(NC(=O)C(C)Oc2ccccc2C)c1 (stereo not shown)	-0.95
CC(C)C(=O)Nc1ccc(NC(=O)COc2ccc(Br)cc2)cc1	17.5
CCOc1ccc(C2C(C(N)=O)=C(C)Nc3nc(-c4cccc(C)c4)nn32)cc1 (stereo not shown)	-1.47
CC(C)c1ccc(CN(C(=O)c2ccco2)C2CCS(=O)(=O)C2)cc1 (stereo not shown)	6.79

SMILES	% Inhibition @ 10 uM [%]
CCC(=O)Nc1ccc(N2CCN(S(C)(=O)=O)CC2)cc1	-0.737
O=C1c2ccccc2NC(c2cccc(O)c2)N1c1ccc(F)cc1 (stereo not shown)	0.163
O=C(Oc1ccccc1)c1sc2ccccc2c1Cl	5.5
O=C(CSc1nc(O)c2cnn(-c3ccccc3)c2n1)N1CCOCC1	-5.22
CN1c2ccccc2NC2ONC(c3ccc(Br)cc3)=NC21 (stereo not shown)	3.15
CCc1ccc(/C=C2\SC(N3CCCC3)=NC2=O)cc1	3.72
CCOc1ccc(N(C(C)C(=O)N2CCC(C)CC2)S(C)(=O)=O)cc1 (stereo not shown)	-10.7
O=C(c1ccc(Cl)cc1)C12CN3CN(CN(C3)C1)C2	-4.39
CC(C(=O)Nc1cccc(F)c1)N1C(=O)c2ccccc2C1=O (stereo not shown)	3.93
CCOCCCN(Cc1ccco1)C(=O)c1cc2c(Cl)nc3ccccc3c2s1	1.1
CCS(=O)(=O)C1=NN2C(=N)/C(=C\c3cc(C)n(-c4ccccc4OC)c3C)C(=O)N=C2S1	-3.35
Cn1c(=O)c(C(=O)c2cccnc2)c(O)c2ccccc21	5.73
Cc1nnc(N2CCC(C(=O)NCc3cccnc3)CC2)c2nn(-c3ccc(Cl)cc3)c(C)c12	5.84
COc1cc(OC)cc(C(=O)Nc2nc(-c3nnn(-c4cccc(Cl)c4C)c3C)ns2)c1	-4.52
OC1(c2ccc(Cl)cc2)C[N+](c2ccc(Cl)cc2)=C2SCCCN21 (stereo not shown)	-1.4
CN(C)C(CNC(=O)c1cccs1)c1cccnc1 (stereo not shown)	2.9
CC1CCCC(NC(=O)c2cc3c(s2)-c2ccccc2OC3)C1C (stereo not shown)	0.291
CC1=C(C(=O)OC2CCCC(C)C2)C(c2ccccc2Cl)NC(=O)N1 (stereo not shown)	4.61
CC(C)NC(=O)N1Cc2ccccc2-n2cccc2C1c1ccccc1 (stereo not shown)	3.53
Clc1ccc(C(NC2CCN(CCc3ccccc3)CC2)c2ccccc2)cc1 (stereo not shown)	1.57
O=C(Nc1ccccc1Br)c1ccc(N2C(=O)c3ccccc3C2=O)cc1	3.03
O=C(Nc1ccc2c(c1)OCO2)c1cc2nc(-c3ccco3)cc(C(F)(F)Cl)n2n1	2.02
O=C1CC(c2cc3c(cc2Br)OCO3)C2=C(CCCC2=O)N1 (stereo not shown)	2.35
O=C(NCc1cccnc1)C1CCCN(S(=O)(=O)N2CCC3(CC2)OCCO3)C1 (stereo not shown)	-1.97
Cc1cc(C)c(C#N)c(SCCN2CCOCC2)n1	-0.267

SMILES	% Inhibition @ 10 uM [%]
CC1(C)C(C)(C(=O)O)C12CCC2C(=O)NCc1ccco1 (stereo not shown)	-3.92
CCC(CC)COC(=O)C1=C(C)NC(=O)CC1c1ccc(Cl)cc1Cl (stereo not shown)	4.23
Cc1ccc(N2C(=O)/C(=C\N3CCOCC3)c3ccccc3C2=O)cc1	-8.49
CC(=O)NC1(CC(=O)C(C)(C)C)CCC1	-0.415
COc1cc(C2NC(=O)NC(C)=C2C(=O)NCc2ccccc2)ccc1OCC(N)=O (stereo not shown)	-1.16
CC(C)N(Cc1nc(-c2ccccc2)no1)C(=O)COc1ccccc1Cl	-0.942
CC1=C(C#N)C(c2ccc(O)cc2)C2=C(O)CCCC2=N1 (stereo not shown)	2.16
Cc1nc2ccccc2n1CCOc1ccccc1	2.57
Cc1ccc(N(CC(=O)Nc2ccccc2F)S(C)(=O)=O)cc1C	-1.43
Fc1ccccc1-n1nnnc1SCc1cc2c(cc1Cl)OCO2	4.66
CC(CCc1ccccc1)NC(=O)c1cc(O)nc2ccc(S(=O)(=O)N3CCCCC3)cc12 (stereo not shown)	3.81
CN1CCN(C(=O)c2cc3ccc4cccnc4c3[nH]2)CC1	0.711
Cc1ccc2c(c1)n(Cc1ccccc1)c(=O)n2Cc1ccccc1	-1.22
O=C(O)c1cc(Sc2ccc(Cl)cc2)nc2ccccc12	-0.406
COc1ccccc1C(=O)Nc1ccc(S(N)(=O)=O)cc1	-2.74
CCOCCCNC(=O)c1c(NC(=O)c2nc(S(C)(=O)=O)ncc2Cl)sc2c1CCC2	-4.64
COc1ccc(-n2c3c(c(=O)[nH]c2=O)C(C(F)(F)F)(C(F)(F)F)NC(c2cccs2)=N3)cc1	0.83
N#Cc1ccccc1Cn1c(-c2nonc2N)nc2ccccc21	0.52
COc1ccc(OC)c(S(=O)(=O)c2cc3cccc(OC)c3oc2=O)c1	3.75
CC(C)c1cccc(OCCOCCN2CCNCC2)c1	-7.58
Cc1ccc(-c2c(C(=O)O)oc(=O)c3ccccc23)cc1C	0.936
C/C=C/CSc1nc2c(c(=O)[nH]c(=O)n2C)n1C(C)C	-1.44
CC(C)(C)NC(=O)/C(=C\c1ccco1)NC(=O)c1cccs1	-4.8
CCCN1CCN(CCCNC(=O)c2cnc(SC)nc2-c2ccccc2)CC1	-0.742
CCOC(=O)c1c(NC(=O)CCCOc2cccc(C)c2)sc(C)c1C	-1.25
